Reference: PMC11109194
These are yes or no findings as the source states them, for the method shown. Binding seen in cells or lysates may run through a third protein. Some results given as binding are weak or reduced against the parent protein; the word gives no strength. Where a sequence is shown, tags or fusion partners need not be part of it.

Amino acid sequences for entries named in this document (tags omitted). Residues count along the entry.
UniProt P22366: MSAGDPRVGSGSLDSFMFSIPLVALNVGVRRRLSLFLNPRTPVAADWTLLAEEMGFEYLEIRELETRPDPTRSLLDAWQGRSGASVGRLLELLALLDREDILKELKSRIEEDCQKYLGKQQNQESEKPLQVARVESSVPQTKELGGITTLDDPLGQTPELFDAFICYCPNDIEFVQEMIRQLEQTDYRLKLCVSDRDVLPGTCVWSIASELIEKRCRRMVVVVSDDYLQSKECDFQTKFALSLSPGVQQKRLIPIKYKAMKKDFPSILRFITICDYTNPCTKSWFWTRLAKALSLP
UniProt Q9QUK6, residues 26-835: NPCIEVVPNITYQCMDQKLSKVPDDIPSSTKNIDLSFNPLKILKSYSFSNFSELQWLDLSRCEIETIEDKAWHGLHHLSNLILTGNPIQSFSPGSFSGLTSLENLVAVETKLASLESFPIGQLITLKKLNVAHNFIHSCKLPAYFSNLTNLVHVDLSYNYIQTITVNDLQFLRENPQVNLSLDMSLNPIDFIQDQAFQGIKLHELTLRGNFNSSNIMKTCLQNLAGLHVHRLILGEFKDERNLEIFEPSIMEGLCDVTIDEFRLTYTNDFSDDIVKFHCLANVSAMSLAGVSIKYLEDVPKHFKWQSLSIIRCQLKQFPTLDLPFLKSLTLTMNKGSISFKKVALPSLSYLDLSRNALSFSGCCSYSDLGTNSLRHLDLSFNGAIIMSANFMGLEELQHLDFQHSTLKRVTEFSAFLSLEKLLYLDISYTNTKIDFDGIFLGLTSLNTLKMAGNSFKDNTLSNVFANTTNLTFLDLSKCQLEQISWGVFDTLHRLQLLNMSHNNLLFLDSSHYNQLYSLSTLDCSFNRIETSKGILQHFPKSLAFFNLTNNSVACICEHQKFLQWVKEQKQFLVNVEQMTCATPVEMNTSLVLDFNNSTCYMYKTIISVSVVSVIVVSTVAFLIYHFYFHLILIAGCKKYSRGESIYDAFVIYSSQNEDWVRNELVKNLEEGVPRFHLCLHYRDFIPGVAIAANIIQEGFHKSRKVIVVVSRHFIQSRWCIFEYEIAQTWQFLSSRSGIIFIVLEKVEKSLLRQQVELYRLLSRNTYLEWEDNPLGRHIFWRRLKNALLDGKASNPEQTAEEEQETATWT

Assays:
Experiment in all cases: co-IP; HEK293 cells co-transfected with tagged plasmids; lysate incubated with the indicated antibody overnight at 4 °C, protein A/G plus agarose beads, western blot; in some panels a third protein co-expressed, or cells incubated with 5Z-7-OX (0.1, 0.3 or 1 mM, 12 h)
[1] = target: T1, TGF-β activated kinase 1 binding protein 1 (TAB1) (UniProt Q8CF89)
T1 sequence: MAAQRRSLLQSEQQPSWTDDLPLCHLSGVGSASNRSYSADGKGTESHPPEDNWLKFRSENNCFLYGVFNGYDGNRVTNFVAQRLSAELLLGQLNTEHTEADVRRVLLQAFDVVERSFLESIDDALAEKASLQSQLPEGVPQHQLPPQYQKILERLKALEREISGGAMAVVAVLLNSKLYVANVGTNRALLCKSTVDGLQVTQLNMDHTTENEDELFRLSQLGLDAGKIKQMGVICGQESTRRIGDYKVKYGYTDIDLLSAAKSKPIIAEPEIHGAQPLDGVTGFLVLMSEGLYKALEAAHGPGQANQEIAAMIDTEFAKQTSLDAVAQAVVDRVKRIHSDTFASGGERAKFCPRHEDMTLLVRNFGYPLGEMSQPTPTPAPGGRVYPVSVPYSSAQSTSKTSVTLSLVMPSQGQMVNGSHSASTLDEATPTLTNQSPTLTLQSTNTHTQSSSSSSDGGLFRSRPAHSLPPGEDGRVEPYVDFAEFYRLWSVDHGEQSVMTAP

[2] = target: myeloid differentiation primary response gene 88 (MyD88) (UniProt P22366)
[3] = target: T2, HA-TAK1 (transforming growth factor β-activated kinase) (UniProt Q62073)
T2 sequence: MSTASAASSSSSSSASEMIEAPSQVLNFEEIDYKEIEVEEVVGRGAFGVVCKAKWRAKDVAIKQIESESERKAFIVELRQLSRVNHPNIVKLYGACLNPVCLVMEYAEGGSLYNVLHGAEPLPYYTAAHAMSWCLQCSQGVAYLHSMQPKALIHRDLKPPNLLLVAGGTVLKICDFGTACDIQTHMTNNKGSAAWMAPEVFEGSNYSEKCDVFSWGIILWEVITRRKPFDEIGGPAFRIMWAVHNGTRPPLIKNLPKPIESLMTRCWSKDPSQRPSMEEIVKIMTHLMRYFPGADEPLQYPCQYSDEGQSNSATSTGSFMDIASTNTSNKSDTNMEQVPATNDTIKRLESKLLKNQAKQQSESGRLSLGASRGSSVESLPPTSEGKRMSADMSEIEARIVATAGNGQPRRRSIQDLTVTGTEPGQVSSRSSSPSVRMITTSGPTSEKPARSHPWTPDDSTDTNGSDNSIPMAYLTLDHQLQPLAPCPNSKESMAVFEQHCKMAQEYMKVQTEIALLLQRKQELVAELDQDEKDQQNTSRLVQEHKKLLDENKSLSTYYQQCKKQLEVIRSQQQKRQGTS

TAK1 (1–300) = target: T3, TAK1 (1–300) (UniProt Q62073)
T3 sequence: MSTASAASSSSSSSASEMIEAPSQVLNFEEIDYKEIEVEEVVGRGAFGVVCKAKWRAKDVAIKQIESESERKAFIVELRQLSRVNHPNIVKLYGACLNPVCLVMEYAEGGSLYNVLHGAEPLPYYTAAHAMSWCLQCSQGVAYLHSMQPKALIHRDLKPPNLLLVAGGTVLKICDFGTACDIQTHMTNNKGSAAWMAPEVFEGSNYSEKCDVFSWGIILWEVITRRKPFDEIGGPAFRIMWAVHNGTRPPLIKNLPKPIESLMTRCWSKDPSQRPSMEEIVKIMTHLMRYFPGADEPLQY

TLR4 = TLR4 (UniProt Q9QUK6)

binding [1]: no binding
binding [2]: no binding
binding [3]: binds
binding (TAK1 (1–300)): binds
binding (TLR4): no binding
B1: Flag-TIGAR (TP53-induced glycolysis and apoptosis regulator) (protein, UniProt Q8BZA9 1-269)
chain: MPRFALTVIRHGETRLNKEKIIQGQGVDAPLSETGFRQAAAAGQFLSNVQFTHAFSSDLTRTKQTIHGILEKSRFCKDMAVKYDSRLRERMYGVAEGKPLSELRAMAKAAGEECPMFTPPGGETVEQVKMRGKDFFDFICQLILGKAGQRESVLPGAPGSGLESSLAEVFPVGKHGSLGANPKGGTLGLAASILVVSHGAYMRSLFGYFLSDLRCSLPGARDKLELSSITPNTGISVFIIDCEEARQPSIQCVCMNLQEHLNGVTEKQH
